These results are taken from the antibiotic and cytotoxicity screens of Wong et al. (2023).

One assay has as its system HSkMC. In words: cytotoxicity call (relative viability < 0.9). The following applies: 10 µM.
A further assay relates to HepG2. In words: cytotoxicity call (relative viability < 0.9). The following applies: 10 µM.
Another assay deals with S. aureus RN4220. Description: growth inhibition call (relative growth <= 0.2). The following applies: 50 µM.

SMILES strings stand for the structures. The list shows a part of the results.

In the case of `C[C@H](CO)N1C[C@H](C)[C@@H](CN(C)CC2CCCCC2)OCCCC[C@H](C)Oc2ccc(NC(=O)Nc3ccccc3)cc2C1=O`, the cytotoxicity call in the assay with HSkMC and with HepG2 was “inactive” each time. In addition, the growth inhibition call with S. aureus RN4220 is “inactive”.
With `O=C(C[C@@H]1C[C@H]2c3cc(NS(=O)(=O)c4ccc(F)cc4)ccc3O[C@H]2[C@H](CO)O1)N1CCOCC1`, the cytotoxicity call in the assay with HSkMC and in the assay on HepG2 was “inactive” throughout. For the same molecule, in the assay with S. aureus RN4220, the growth inhibition call is “inactive”.
Take `C[C@H](CO)N1C[C@H](C)[C@@H](CN(C)C(=O)Nc2ccc(F)cc2)Oc2c(NC(=O)Nc3ccc(C(F)(F)F)cc3)cccc2C1=O`: the cytotoxicity call in the assay on HSkMC and in the assay on HepG2 was “inactive” in each case. Besides, the growth inhibition call in the assay on S. aureus RN4220 was “inactive”.
With `CO[C@H]1CN(C)C(=O)c2cc(NC(=O)Nc3cccc(F)c3)ccc2OC[C@H](C)N(C(=O)Nc2c(C)noc2C)C[C@H]1C`, the cytotoxicity call in the assay with HSkMC and with HepG2 was “inactive” each time. In addition, the growth inhibition call in the assay on S. aureus RN4220 was “inactive”.
Regarding `Cc1cccc(S(=O)(=O)N2C[C@H](O)COC[C@H]3O[C@H](CC(=O)NCCCN4CCOCC4)CC[C@@H]32)c1`, the cytotoxicity call in the assay on HSkMC and in the assay with HepG2 was “inactive” throughout. In addition, the growth inhibition call in the assay with S. aureus RN4220 was “inactive”.
In the case of `CCCCCCCCCCC/C=C\C/C=C\CCCC(=O)O`, the cytotoxicity call with HSkMC and in the assay on HepG2 was “inactive” throughout. Also, the growth inhibition call with S. aureus RN4220 was “inactive”.
Turning to `C[C@@H]1CN([C@H](C)CO)C(=O)c2cccc(NC(=O)Nc3ccccc3)c2O[C@H]1CN(C)CC1CCCCC1`, the cytotoxicity call in the assay with HSkMC and in the assay on HepG2 was “inactive” throughout. The growth inhibition call with S. aureus RN4220 was “inactive”.
As to `Cc1cc(C(=O)Nc2cccc3c2O[C@H](CN(C)S(=O)(=O)c2ccc(Cl)cc2)[C@@H](C)CN([C@H](C)CO)C3=O)n(C)n1`, the cytotoxicity call in the assay on HSkMC and in the assay with HepG2 was “inactive” each time. Also, the growth inhibition call with S. aureus RN4220 was “inactive”.
Regarding `C[C@@H]1CN([C@H](C)CO)S(=O)(=O)c2ccc(-c3cccc(C(=O)N(C)C)c3)cc2O[C@@H]1CN(C)C(=O)Cc1ccccn1`, the cytotoxicity call in the assay with HSkMC and with HepG2 was “inactive” in each case. The growth inhibition call in the assay with S. aureus RN4220 is “inactive”.
`O=C1O[C@H](c2ccccc2)[C@H](c2ccccc2)N2[C@H]1[C@@H](C(=O)Nc1nc3ccccc3s1)[C@]1(C(=O)Nc3ccccc31)[C@H]2c1ccc(OCCO)cc1`: the cytotoxicity call in the assay on HSkMC and in the assay on HepG2 was “inactive” each time. Moreover, in the assay on S. aureus RN4220, the growth inhibition call was “inactive”.
Regarding `C[C@@H]1CCCCO[C@@H](CN(C)S(C)(=O)=O)[C@@H](C)CN([C@@H](C)CO)C(=O)c2cc(NC(=O)CCCN(C)C)ccc2O1`, the cytotoxicity call in the assay with HSkMC and in the assay on HepG2 was “inactive” throughout. Further, in the assay with S. aureus RN4220, the growth inhibition call was “inactive”.
`C=C1C(=O)OC2CC3(C)CCCC(C)C3=CC12` (centres undefined): the cytotoxicity call with HSkMC and in the assay on HepG2 was “active” in each case. The growth inhibition call in the assay with S. aureus RN4220 is “inactive”.
With `C[C@@H]1CN([C@@H](C)CO)C(=O)CCCn2cc(nn2)CO[C@H]1CN(C)C(=O)C1CC1`, the cytotoxicity call in the assay on HSkMC and in the assay on HepG2 was “inactive” each time. Also, the growth inhibition call in the assay with S. aureus RN4220 is “inactive”.
Consider `Cc1cccc(NC(=O)Nc2ccc3c(c2)C(=O)N(C)[C@H]2CC[C@@H](CC(=O)NCc4ccccc4Cl)O[C@@H]2CO3)c1`, for which the cytotoxicity call with HSkMC and in the assay on HepG2 was “inactive” each time. In the assay on S. aureus RN4220, the growth inhibition call was “inactive”.
Turning to `C[C@@H]1CN([C@@H](C)CO)C(=O)c2cc(NC(=O)CCC(F)(F)F)ccc2O[C@@H](C)CCCCO[C@H]1CN(C)C(=O)Nc1ccccc1`, the cytotoxicity call in the assay with HSkMC and with HepG2 was “inactive” each time. Also, the growth inhibition call in the assay with S. aureus RN4220 was “inactive”.
In the case of `C[C@@H]1CCCCO[C@@H](CN(C)C(=O)C2CCCCC2)[C@H](C)CN([C@H](C)CO)C(=O)c2cc(NS(=O)(=O)c3ccc(Cl)cc3)ccc2O1`, the cytotoxicity call in the assay with HSkMC and in the assay with HepG2 was “inactive” in each case. In addition, in the assay with S. aureus RN4220, the growth inhibition call was “inactive”.
As to `C[C@H](CO)N1C[C@H](C)[C@H](CN(C)S(=O)(=O)c2ccc(C(F)(F)F)cc2)OCc2ccccc2-c2ccccc2C1=O`, the cytotoxicity call in the assay with HSkMC and with HepG2 was “inactive” in each case. Also, in the assay on S. aureus RN4220, the growth inhibition call is “inactive”.
On to `N[C@@H]1c2ccccc2C[C@@H]1O`, for which the cytotoxicity call in the assay on HSkMC and in the assay with HepG2 was “inactive” throughout. The growth inhibition call in the assay on S. aureus RN4220 was “inactive”.
With `C[C@H](CO)N1C[C@H](C)[C@H](CN(C)Cc2ccc(Cl)c(Cl)c2)Oc2ccc(NS(=O)(=O)c3ccc(Cl)cc3)cc2CC1=O`, the cytotoxicity call in the assay with HSkMC and in the assay on HepG2 was “active” throughout. Besides, in the assay on S. aureus RN4220, the growth inhibition call was “inactive”.
For the molecule `Cc1noc(C)c1S(=O)(=O)Nc1ccc2c(c1)CC(=O)N([C@@H](C)CO)C[C@@H](C)[C@H](CN(C)S(=O)(=O)c1cccs1)O2`, the cytotoxicity call in the assay with HSkMC and with HepG2 was “inactive” throughout. Besides, the growth inhibition call in the assay on S. aureus RN4220 is “inactive”.
In the case of `C[C@H](CO)N1C[C@H](C)[C@H](CN(C)C(=O)Nc2ccc(C(F)(F)F)cc2)Oc2ccc(NC(=O)C3CCCCC3)cc2C1=O`, the cytotoxicity call in the assay on HSkMC and with HepG2 was “inactive” throughout. In the assay with S. aureus RN4220, the growth inhibition call was “inactive”.
Regarding `Cc1noc(C)c1S(=O)(=O)N(C)C[C@@H]1OCCCC[C@H](C)Oc2ccc(NS(C)(=O)=O)cc2C(=O)N([C@@H](C)CO)C[C@H]1C`, the cytotoxicity call in the assay on HSkMC and with HepG2 was “inactive” throughout. Moreover, the growth inhibition call in the assay with S. aureus RN4220 is “inactive”.
Turning to `C[C@@H]1CN([C@@H](C)CO)C(=O)c2cc(N(C)C)ccc2O[C@@H](C)CCCCO[C@H]1CN(C)Cc1ccc(C(=O)Nc2ccccc2N)cc1`, the cytotoxicity call in the assay with HSkMC and in the assay with HepG2 was “inactive” throughout. Also, in the assay on S. aureus RN4220, the growth inhibition call is “inactive”.
`N[C@@H](CSS(=O)(=O)O)C(=O)O`: the cytotoxicity call in the assay on HSkMC and in the assay with HepG2 was “inactive” in each case. The growth inhibition call in the assay with S. aureus RN4220 is “inactive”.
Take `C[C@@H]1CN([C@H](C)CO)C(=O)c2cc(NC(=O)C3CCCCC3)ccc2O[C@@H](C)CCCCO[C@H]1CN(C)C(=O)Nc1ccc(F)cc1`: the cytotoxicity call in the assay on HSkMC and with HepG2 was “inactive” in each case. The growth inhibition call in the assay with S. aureus RN4220 is “inactive”.
`Cc1noc(C)c1S(=O)(=O)Nc1ccc2c(c1)C(=O)N([C@H](C)CO)C[C@@H](C)[C@@H](CN(C)Cc1ccccc1)O2`: the cytotoxicity call with HSkMC and in the assay with HepG2 was “inactive” each time. Besides, the growth inhibition call with S. aureus RN4220 is “inactive”.
For `C[C@@H]1CN([C@H](C)CO)C(=O)c2cccc(NC(=O)c3cnccn3)c2O[C@@H]1CN(C)Cc1ccccc1`, the cytotoxicity call in the assay on HSkMC (human skeletal muscle cells) and with HepG2 was “inactive” in each case. Moreover, the growth inhibition call in the assay on S. aureus RN4220 was “inactive”.
Turning to `O=C(C[C@@H]1CC[C@H]2[C@@H](COC[C@@H](O)CN2S(=O)(=O)c2ccc(F)cc2)O1)N1CCc2ccccc2C1`, the cytotoxicity call with HSkMC and in the assay on HepG2 was “inactive” each time. Besides, the growth inhibition call in the assay on S. aureus RN4220 was “inactive”.
